# From PubChem BioAssay AID686979 (National Center for Advancing Translational Sciences (NCATS), 2013)
# About 50,000 (12%) of roughly 420,000 compounds were called active. Inconclusive means that the source gave no clear call. Such entries were picked first, then a sample of the others. The call rests on the fitted dose curve; in most records, active means well fitted inhibition curve with a large enough effect; inconclusive means small, poorly fitted or top-dose-only effect; inactive means flat fitted curve, though single readings scatter. No potency is given beside an inconclusive call; the fits are too rough.
# Assay: qHTS for Inhibitors of human tyrosyl-DNA phosphodiesterase 1 (TDP1): qHTS in cells in presence of CPT; further: nearly all actives have a fitted effect of over 55% in size
# Details: chicken DT40 Tdp1-/-;hTDP1 cells + 20 nM CPT, ATP luminescence, 48 h; activity change, negative = growth inhibition: at 46.2 µM (top of the series)
# In short: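 Cell growth measured by CellTiter-Glo luminescence after a minimum 48 h, 37 C compound exposure with 20 nM CPT in Tdp1-knockout DT40 cells stably expressing hTDP1, seeded 400/well; qHTS titration format.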
# On the % scale 0 is the no-effect control and ±100 the full control effect; potency means the concentration at half of the fitted maximal effect; tags describe the fitted curve by direction and shape.
SMILES,Potency,"activity change, negative = growth inhibition"
CC(C)(C)c1ccc(NC(=O)COC(=O)c2ccccc2OCC(=O)Nc2ccc(Br)cc2)cc1,active: 15.8 µM,–
CCOC(=O)N1CCN(C(=O)c2ccc3c(c2)sc2nc(-c4ccccc4)cn23)CC1,"inconclusive [inhibitor, single point]",–
CCOC(=O)c1noc(C)c1C(=O)Nc1nc(C)cc(C)n1,–,inactive: -1.96%
CC(C)(C)c1ccc(-c2conc2N)cc1,"inconclusive [inhibitor, single point]",–
COc1ccc(N2CCN(C(=O)CCn3nc(C)c(S(=O)(=O)N4CCCC4)c3C)CC2)cc1,"inconclusive [inhibitor, partial curve]",–
COC(=O)c1ccc(/C=C/c2ccc3cccc(OC)c3n2)cc1,"inconclusive [inhibitor, single point]",–
O=C(NCCc1cccc(Cl)c1)c1cccs1,"inconclusive [inhibitor, single point]",–
CCc1c(C)nc2cc(-c3ccc(Cl)cc3)[nH]n2c1=O,active: 3.66 µM,–
COc1ccc2cc(CN(Cc3cccs3)Cc3nnnn3Cc3ccccc3)c(=O)[nH]c2c1,"inconclusive [inhibitor, single point]",–
CC(=O)c1sc(NC(=O)C2(F)C(F)(F)C(F)(F)C(F)(F)C(F)(F)C2(F)F)nc1C,active: 4.11 µM,–
CSc1nnc(CNC(=O)C23CC4CC(CC(C4)C2)C3)n1Cc1ccccc1,"inconclusive [inhibitor, single point]",–
C[N+](C)(C)c1ccc(/C=C2\C=Cc3ccccc32)cc1,"inconclusive [inhibitor, single point]",–
CC(C)CCn1c(SCC(=O)NC2CC2)nc2cc(Cl)ccc2c1=O,"inconclusive [inhibitor, single point]",–
c1ccc(-c2nc3ccccc3nc2N2CCOCC2)cc1,"inconclusive [inhibitor, single point]",–
CCCN1C(=O)CN(C2CCCCCC2)C(=O)C1c1ccc(C)cc1 (centres undefined),"inconclusive [inhibitor, single point]",–
O=C(CN(C(=O)C1CSC(=O)C1)c1ccccc1F)NCc1ccc2c(c1)OCO2 (centres undefined),–,inconclusive: -30.5% [inhibitor]
Cc1nc2ccccc2nc1SCC(=O)N1CCC(C)CC1,"inconclusive [inhibitor, single point]",–
CC(C)(C)CC(C)(C)N=C1Nc2cc(Cl)c(Cl)cc2N[C@]12C[C@H]1CCCC(=O)N3CC[C@@H](C2)[C@@H]13,"inconclusive [inhibitor, single point]",–
CCCN(CC(=O)Nc1ccccc1C)C(=O)C1CCN(S(=O)(=O)c2cccc(C(F)(F)F)c2)CC1,–,inactive: -15.4%
O=C(N1CCN=C1SCc1cccnc1)C12CC3CC(CC(C3)C1)C2,"inconclusive [inhibitor, single point]",–
O=C(c1ccccn1)N1CCN(c2cccc(C(F)(F)F)c2)CC1,–,inactive: -28.1%
Oc1ccc2ccccc2c1-c1sc(Nc2ccccc2)n[n+]1-c1ccc(F)cc1,"inconclusive [inhibitor, single point]",–
CCN(CC(=O)NCc1ccc(F)cc1)C(=O)c1ccc(C)o1,–,inactive: 1.57%

SMILES,Potency,"activity change, negative = growth inhibition"
CCC(C)Sc1cc(-c2nc3ccc(C)cn3c2NCc2ccccc2)ccc1OC (centres undefined),active: 4.61 µM,–
Cc1ccc2c(c1)N(C(=O)CCC(=O)NC1CCCCCC1)CCO2,"inconclusive [inhibitor, single point]",–
Clc1ccc(/C=C/c2nc3ccccc3[nH]2)cc1,"inconclusive [inhibitor, single point]",–
COc1cccc(-c2nnc(SCC(=O)N(C(C)C)C(C)C)o2)c1,"inconclusive [inhibitor, single point]",–
Cc1ccc(NC(=O)C2Cc3ccccc3O/C2=N\O)cc1C (centres undefined),–,inactive: 10.5%
Cc1cccc(-c2noc(CN(C(=O)C34CC5CC(CC(C5)C3)C4)C(C)C)n2)c1,"inconclusive [inhibitor, single point]",–
Cc1ccc(C(C(=O)NC2CCCC2)N(C(=O)c2csnn2)c2ccccc2)o1 (centres undefined),–,inactive: 7.9%
CCOC(=O)c1[nH]c2ccccc2c1NC(=O)CCN1CCN(C(=O)OCC)CC1,–,inactive: -4.79%
CCOc1ccc(Nc2ncnc3ccc([N+](=O)[O-])cc23)cc1,"inconclusive [inhibitor, full curve]",–
CC(=O)c1ccc(-c2cnc3c(NC=O)cc(-c4cccc(NS(C)(=O)=O)c4)cn23)cc1,active: 23.1 µM,–
c1ccc(-n2ncc3c(NCc4ccc5c(c4)OCO5)ncnc32)cc1,–,inactive: -14.2%
COC(=O)C(NC(=O)c1ccccc1)C(C)(C)SCc1ccccc1 (centres undefined),"inconclusive [inhibitor, partial curve, poor fit]",–
O=C(CSc1nnc(-c2ccccc2)o1)c1cccc([N+](=O)[O-])c1,–,inactive: -12%
COc1cccc(NC(=S)N(CCCN2CCOCC2)Cc2cn(C)c3ccccc23)c1,active: 9.2 µM,–
CC(C)N1CN(c2ccccc2)C(=S)N(c2ccccc2)C1,"inconclusive [inhibitor, partial curve]",–
CCOC(=O)Cc1csc(NC(=O)CSc2nc(N)c3c(C)c(C)sc3n2)n1,"inconclusive [inhibitor, single point]",–
Cc1nn(Cc2ccccc2)c(C)c1NC(=O)CSc1n[nH]c(C)c1[N+](=O)[O-],"inconclusive [inhibitor, partial curve]",–
Cn1cccc1Cc1nnc(SCC(=O)Nc2ccc3c(c2)OCO3)n1CCc1ccccc1,"inconclusive [inhibitor, single point]",–
CC(=O)c1c(C)cc(C)c(CSc2nc(C)cc(=O)[nH]2)c1C,"inconclusive [inhibitor, single point]",–
Cc1nc(C)c(-c2csc(Nc3ccc(O)cc3C)n2)s1,active: 16.4 µM,–
Oc1ccc(N=Nc2cccc(Cl)c2)cc1C=Nc1ccc(N2CCOCC2)cc1,"inconclusive [inhibitor, single point]",–
COc1ccccc1NC(=O)CN1C(=O)NC2(CCCc3ccccc32)C1=O (centres undefined),–,inactive: -6.67%
O=C(Cn1ncc2c3ccccc3n(Cc3ccc(Cl)cc3)c2c1=O)NCc1ccccn1,"inconclusive [inhibitor, single point]",–

SMILES,Potency,"activity change, negative = growth inhibition"
NC(=O)c1ccccc1NC(=O)c1ccc(-c2ccc(Br)cc2)o1,–,inactive: -24.5%
Cc1cc(-c2ccccc2)nc2[nH]n(-c3ccccc3)c(=O)c12,"inconclusive [inhibitor, partial curve, poor fit]",–
CCCc1nc2ccc(C)cn2c1Cc1ccccc1OC,active: 20.6 µM,–
COC(=O)c1cc(S(=O)(=O)N2CCN(c3cccc(C)c3)C(C)C2)cn1C (centres undefined),"inconclusive [inhibitor, single point]",–
O=C(NCc1ccco1)c1ccc(COc2cc(Cl)ccc2Cl)cc1,"inconclusive [inhibitor, single point]",–
CC(C)n1c(SCC(=O)Nc2ccccc2)nc2c1c(=O)n(C)c(=O)n2C,"inconclusive [inhibitor, single point]",–
CC(=O)Nc1nn(CC(C)C)c2nc3ccc(C)cc3cc12,"inconclusive [inhibitor, partial curve, poor fit]",–
CCOc1ccc(NC(=O)CNc2ccc(C)cc2Cl)cc1,"inconclusive [inhibitor, single point]",–
C=CCn1cc(C(=O)NCCOC)c(=O)c2cc(S(=O)(=O)N3CCCCCC3)ccc21,"inconclusive [inhibitor, partial curve]",–
CCc1ccc(-n2cnc3cc(C(=O)NCc4ccc(C)cc4)ccc32)cc1,active: 14.6 µM,–
O=C(c1ccc(F)cc1)N(NC(=O)C(O)(c1ccccc1)c1ccccc1)c1ccccc1,"inconclusive [inhibitor, partial curve]",–
CCCc1nc2cccnc2n1C1CCN(C(=O)CC2NC(=O)c3ccccc32)CC1 (centres undefined),–,inactive: 0.395%
Fc1ccccc1N1CCN(C2CCCN(Cc3cccc(C(F)(F)F)c3)C2)CC1 (centres undefined),"inconclusive [inhibitor, single point]",–
CSc1ccc(CN(C)CC(=O)Nc2cccc(Br)c2)cc1,"inconclusive [inhibitor, partial curve]",–
COc1cc(NC(=O)CSCC(=O)N(C)C2CCCCC2)cc(OC)c1,–,inactive: -15.7%
COc1cnn(Cc2ccccc2)c(=O)c1SCc1ccccc1,"inconclusive [inhibitor, single point]",–
O=C(NCCc1ccccc1F)c1[nH]c(C(F)(F)F)nc1-c1ccccc1,–,inactive: 0.658%
CCOC(=O)c1c(C)[nH]c(CCC(=O)NCc2ccc(CC)cc2)c1C,"inconclusive [inhibitor, single point]",–
CC1OC(C(C)(C)C)Cc2[nH][nH]c(=O)c21 (centres undefined),–,inactive: -14.2%
O=C(OCC(=O)N1CCOCC1)c1ccc2[nH]c3c(c2c1)CCCC3,"inconclusive [inhibitor, single point]",–
CC1(C(=O)NS(=O)(=O)c2ccccc2Cl)CCN1C(=O)C/C=C/c1ccccc1 (centres undefined),–,inactive: -9.14%
O=C(COc1ccc(F)cc1)N(Cc1cccs1)C1CCS(=O)(=O)C1 (centres undefined),"inconclusive [inhibitor, full curve, poor fit]",–
Cc1c(NC(=O)Nc2cccs2)cccc1[N+](=O)[O-],"inconclusive [inhibitor, single point]",–
